This note sets out measurements from PMC6919601, “Identification of Plasmodium dipeptidyl aminopeptidase allosteric inhibitors by high throughput screening” (PLoS ONE, 2019).

In all, about 110,000 compounds went through this assay and about 230 (0.21%) showed an effect of 50% or more. Some of the results follow.
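Also: 30 min substrate incubation versus DMSO and 10 µM JCP410 controls.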

Sequence of DPAP1 (Q8IIJ9 whole entry, looked up): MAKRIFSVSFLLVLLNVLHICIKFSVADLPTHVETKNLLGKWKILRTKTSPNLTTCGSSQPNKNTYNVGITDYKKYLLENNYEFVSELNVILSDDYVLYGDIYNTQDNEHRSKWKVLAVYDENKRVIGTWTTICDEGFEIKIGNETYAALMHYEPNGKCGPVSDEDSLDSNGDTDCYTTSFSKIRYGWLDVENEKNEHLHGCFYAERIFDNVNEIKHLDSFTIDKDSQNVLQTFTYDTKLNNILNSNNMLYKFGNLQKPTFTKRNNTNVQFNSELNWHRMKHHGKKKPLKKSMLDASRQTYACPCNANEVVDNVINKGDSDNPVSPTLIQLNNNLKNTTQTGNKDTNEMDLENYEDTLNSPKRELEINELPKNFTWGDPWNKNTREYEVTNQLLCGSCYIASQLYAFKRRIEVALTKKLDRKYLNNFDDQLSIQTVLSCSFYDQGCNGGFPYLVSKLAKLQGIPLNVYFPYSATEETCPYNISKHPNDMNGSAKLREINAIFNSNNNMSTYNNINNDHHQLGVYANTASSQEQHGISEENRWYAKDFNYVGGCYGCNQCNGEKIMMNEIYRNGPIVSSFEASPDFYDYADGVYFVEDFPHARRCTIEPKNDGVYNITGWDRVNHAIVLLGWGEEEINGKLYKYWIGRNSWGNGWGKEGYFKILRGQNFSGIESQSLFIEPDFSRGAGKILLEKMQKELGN

This experiment has as its target DPAP1 (Plasmodium falciparum, UniProt Q8IIJ9). The experiment is described as follows: primary screen, percent inhibition; read by cleavage of a fluorogenic dipeptide substrate; higher = more effect of the substance. The arrangement: species or system P. falciparum D10 trophozoite lysates; single well.
Regarding `Cc1[nH]c2ccccc2c1C1N2CC3(C)CN1CC(C)(C2)C3` (stereo not drawn), the “% Inhibition @ 10 uM” value is 6.37%.
Consider `CCOc1cc(CN2CCN(Cc3ccccc3)CC2)ccc1O`, for which the “% Inhibition @ 10 uM” value is reported as 3.9%.
In the case of `Cc1ccc(Cc2c(C)nc(C)nc2O)c(C)c1`, the “% Inhibition @ 10 uM” value was determined as 5.26%.
In the case of `CCOc1cc(C(=O)O/N=C(\N)c2cccnc2)cc(OCC)c1OCC`, the “% Inhibition @ 10 uM” value was found to be 2.25%.
For the molecule `OCCN1CCN(C2CCCCCC2)CC1`, the “% Inhibition @ 10 uM” value is 3.19%.
For `O=C1CC(NCCCCO)C(=O)N1c1ccc(Cl)cc1` (stereo not drawn), the “% Inhibition @ 10 uM” value is listed as 3.46%.
As to `Nc1c(C(=O)Nc2ccccc2F)sc2nc3c(cc12)CCC3`, the “% Inhibition @ 10 uM” value is reported as -5.82%.
Then `CCc1ccc(-c2nc(C)c(C(C)=O)n2O)cc1`, with 2.32%; and `CN1CCN(Cc2nnc(S)n2-c2cccc(C#N)c2)CC1`, with 0.986%; and `O=C(NC1CCCC1)c1ccccc1C(=O)NC1CCCC1`, with 3.67%.
As for `Cc1cc(Cl)ccc1OCCCC(=O)Nc1nc2ccccc2[nH]1`, the “% Inhibition @ 10 uM” value was 0.64%.
The same measure for `Cc1ccc(CNc2nc(S)nc3ccccc23)o1`: 5.43%; for `Cc1cccc(NC(=O)c2cnn(C)c2)c1C`: -10%.
With `CN1CCN(CC(=O)Nc2ccc(OC(F)(F)Cl)cc2)CC1`, the “% Inhibition @ 10 uM” value was -0.564%.
Take `Cn1c(=O)c2c(nc(SCc3nc(O)c4ccccc4n3)n2Cc2ccccc2F)n(C)c1=O`: the “% Inhibition @ 10 uM” value was found to be 7.16%.
`CCOc1cc2c(cc1OCC)C(c1ccccc1F)NCC2` (stereo not drawn): the “% Inhibition @ 10 uM” value was 0.231%.
The same measure for `COc1ccc(C2=NN(c3nc(-c4ccc(Cl)cc4)cs3)C(c3ccc(OC)cc3)C2)cc1` (stereo not drawn): -2%.
Turning to `O=C(CC1Sc2ccccc2NC1=O)Nc1ccc(F)cc1` (stereo not drawn), the “% Inhibition @ 10 uM” value turned out to be 0.317%.
`Cc1nc(O)c2c(n1)OC(N)=C(C#N)C2c1ccccc1F` (stereo not drawn): the “% Inhibition @ 10 uM” value was 1.26%.
Then `COc1ccc(OC)c(C2CC(=O)N=C(NC(=O)c3cc(OC)c(OC)c(OC)c3)N2)c1` (stereo not drawn), with 3.89%; and `CSc1nc(O)c2c(n1)N=C1CCCC(O)=C1C2c1ccc(OCc2ccccc2)cc1` (stereo not drawn), with 5.85%.
For the molecule `CCOC(=O)c1ccc(CNS(=O)(=O)c2ccc(S(=O)(=O)N3CCOCC3)cc2)o1`, the “% Inhibition @ 10 uM” value was -6.84%.
As to `CCC1CCCCN1C(=O)CSc1nnc(CNC(=O)c2c(F)cccc2Cl)o1` (stereo not drawn), the “% Inhibition @ 10 uM” value was 0.163%.
Consider `Cc1ccc(C2C3=C(O)c4ccccc4C3=Nc3c2c(=O)[nH]c(=O)n3C)cc1Cl` (stereo not drawn), for which the “% Inhibition @ 10 uM” value came to 8.59%.
For `O=C(Nc1nnc(S(=O)(=O)N2CCCCC2)s1)c1cccc(Br)c1`, the “% Inhibition @ 10 uM” value is -5.37%.
Then `Cc1cccc(CN2CCOCC2)c1`, with 2.7%.
Regarding `COCCn1c(=N)c(C(=O)NCc2ccccc2)cc2c(=O)n3cc(C)ccc3nc21`, the “% Inhibition @ 10 uM” value turned out to be 0.279%.
In the case of `Cc1occc1C(=O)Nc1ccccc1C(N)=O`, the “% Inhibition @ 10 uM” value was -7%.
The same measure for `CCOC(=O)c1ccc(OCC2c3cc(OC)c(OC)cc3CCN2C(=O)CC(C)C)cc1` (stereo not drawn): -3.92%; for `COc1ccccc1CNC(=O)c1cc2c(Cl)nc3ccccc3c2s1`: -2.14%.
Take `CC(CCc1ccccc1)NC(=O)Cn1ncc2c(Cl)cccc21` (stereo not drawn): the “% Inhibition @ 10 uM” value is reported as 0.596%.
With `COc1ccc(CCNC(=O)c2cc3c(s2)-c2ccccc2S(=O)(=O)C3)cc1OC`, the “% Inhibition @ 10 uM” value is on record as -2.17%.
On to `CCOc1cc(C(=O)NC(C)C)cc(OCC)c1OCC`, for which the “% Inhibition @ 10 uM” value is recorded as -7.89%.
Then `Cn1c(/C(C#N)=C/c2ccc(N)cc2)nc2cccnc21`, with -3.69%.
In the case of `COc1ccc(/C=c2\sc3nc(-c4cccnc4)nn3c2=O)cc1OC`, the “% Inhibition @ 10 uM” value was found to be 5.12%.
Take `COc1ccccc1CNC(=O)c1ccc(Cl)c(Cl)c1`: the “% Inhibition @ 10 uM” value is reported as -10.4%.
Take `COc1cc(OC)c(OC)cc1CNCCc1ccccc1`: the “% Inhibition @ 10 uM” value is given as -6.59%.
On to `CCN1C(=O)N/C(=C\c2cc(C)n(-c3ccc(C)cc3)c2C)C1=O`, for which the “% Inhibition @ 10 uM” value is 0.683%.
As to `COc1ccc(C(=O)NCC2OCCc3ccccc32)c(O)c1` (stereo not drawn), the “% Inhibition @ 10 uM” value is 2.09%.
The same measure for `O=C(c1c(F)cccc1F)N1CCN(C/C=C/c2ccccc2)CC1`: -3.52%; for `Cc1onc(-c2c(Cl)cccc2Cl)c1C(=O)N1CCN(C)CC1`: -1.32%; for `CCOc1ccc(C2C(C(=O)Nc3cccnc3)=C(C)Nc3nc(-c4cccs4)nn32)cc1OC` (stereo not drawn): 6.73%.
For the molecule `Cc1cc(C)n(-c2nc(N(C)C)nc(N3CCOCC3)n2)n1`, the “% Inhibition @ 10 uM” value is -5.91%.
Regarding `Nc1ncnc2[nH]c(N3CCOCC3)nc12`, the “% Inhibition @ 10 uM” value is on record as 2.22%.
Then `CCc1nnc(NC(=O)CSc2nnc(-c3ccc(OC)cc3)c(-c3ccc(OC)cc3)n2)s1`, with -6.44%; and `CCOc1cc(C2NC(=O)NC(C)=C2C(=O)Nc2ccccc2C)ccc1O` (stereo not drawn), with 9.5%; and `Cc1cc(C)c(Cc2c(C)nc3c(C(=O)NC4CC4)cnn3c2C)c(C)c1`, with -5.8%.
Take `COc1ccc(-c2nc(CS(=O)(=O)CC(=O)NCCCN3CCOCC3)c(C)o2)cc1`: the “% Inhibition @ 10 uM” value was 1.55%.
For the molecule `COc1ccccc1-c1cc(C(=O)N[C@@H](CC(C)C)C(=O)NCC#N)cc(-c2ccccc2OC)c1`, the “% Inhibition @ 10 uM” value is reported as 1.71%.
For `CCOc1ccccc1/C=c1\sc2nc(-c3cc(OC)c(OC)c(OC)c3)nn2c1=O`, the “% Inhibition @ 10 uM” value is given as -2.98%.
On to `Cc1ccccc1Cn1c(C(F)(F)F)nc2ccccc21`, for which the “% Inhibition @ 10 uM” value is recorded as -0.764%.
With `COc1ccc(S(=O)(=O)NC(CC(=O)N2CCCCCC2)c2ccco2)cc1` (stereo not drawn), the “% Inhibition @ 10 uM” value is given as 4.47%.
The same measure for `O=C(Nc1cccc(F)c1)C1CC(=O)N(c2ccccc2)C1` (stereo not drawn): 4.3%; for `COc1c(Br)cc(Br)cc1/C=C1/C(=O)N=C(N)N1C`: -4.51%; for `C=CCc1cc(/C=C2/NC(=O)NC2=O)cc(OC)c1O`: -1.25%.
With `O=C1C2C3CCC(C3)C2C(=O)N1c1ccc2ccccc2c1` (stereo not drawn), the “% Inhibition @ 10 uM” value is reported as -3.83%.
In the case of `O=C1NC(=S)N(c2ccccc2)C(=O)/C1=C/c1ccc(O)cc1`, the “% Inhibition @ 10 uM” value worked out at 1.43%.
For the molecule `O=c1c2nccnc2nc(SCc2ccc(Cl)cc2)n1Cc1ccco1`, the “% Inhibition @ 10 uM” value is recorded as 1.96%.
As to `COc1cc(S(=O)(=O)n2cnc3ccccc32)ccc1Br`, the “% Inhibition @ 10 uM” value is recorded as -2.98%.
Then `Clc1ccc(N2CCN(Cc3cccc4ccccc34)CC2)cc1`, with -1.86%; and `Cc1cccc(-c2noc(CN(C(=O)c3ccc(C)cc3Cl)C(C)C)n2)c1`, with 1.66%.
As to `CCCCN1C(=O)c2[nH]nc(-c3ccccc3O)c2C1c1cccc(O)c1` (stereo not drawn), the “% Inhibition @ 10 uM” value is 1.82%.
Then `Cc1c(Cl)c(C(F)(F)F)nn1CC(=O)NCc1ccco1`, with -4.24%; and `C(=C\c1nn2c(-c3ccccc3)nnc2s1)/c1ccccc1`, with 7.97%.
As for `CC(=O)Nc1cccc(NC(=O)C2CC3CCC2C3)c1` (stereo not drawn), the “% Inhibition @ 10 uM” value turned out to be 5.74%.
The same measure for `O=C(Cn1ncc2c1-c1ccoc1CC2)NCc1ccccc1Cl`: 0.0882%.
On to `CC(C)CCN1CC(C(=O)NCCC2=CCCCC2)CC1=O` (stereo not drawn), for which the “% Inhibition @ 10 uM” value amounted to 6.86%.
As for `COc1ccccc1OCCn1cnc2ccccc21`, the “% Inhibition @ 10 uM” value is listed as -13.3%.
Regarding `Cc1ccccc1-n1c(S)nnc1CN1CCN(C)CC1`, the “% Inhibition @ 10 uM” value is given as -0.969%.
Consider `CCOc1ccccc1NC(=O)CN(c1ccc(OC)c(Cl)c1)S(C)(=O)=O`, for which the “% Inhibition @ 10 uM” value is recorded as 3.66%.
Then `O=C(CCCn1c(=O)c2cccn2c2cccnc21)N1CCN(C2CCCCC2)CC1`, with 3.1%.
The same measure for `O=C(c1ccccc1Cl)N1CCN(c2ccccc2)CC1`: 3.48%; for `c1ccc(C(CN2CCN(c3ccccc3)CC2)c2ccccc2)cc1`: -2.21%; for `CC(C)NC(=O)CCCSc1nc(-c2ccco2)cc(C(F)(F)F)n1`: -9.37%.
Then `CCOc1ccc2nc(N3CCC(C(=O)NC(C)CC)CC3)sc2c1` (stereo not drawn), with -5.19%; and `COc1cccc(N2C(=O)C(O)=C(C(=O)c3ccccc3)C2c2ccc(O)c(OC)c2)c1` (stereo not drawn), with -0.63%.
Regarding `COC(=O)C1=CN(Cc2ccc(Cl)cc2)C=C(C(=O)OC)C1c1ccc2c(c1)OCO2`, the “% Inhibition @ 10 uM” value is 6.48%.
Then `O=C(Nc1ccccc1C(=O)NCc1ccco1)c1ccc(-c2ccccc2)cc1`, with -5.6%.
Take `COc1cc(OC)cc(C(=O)NCc2nc(-c3ccccc3)no2)c1`: the “% Inhibition @ 10 uM” value was -1.22%.
The same measure for `Cc1ccc2c(nc3s/c(=C\c4ccccc4Cl)c(=O)n32)c1C`: 5.16%; for `COc1ccc(Cl)cc1-c1nc(N)nc(NCCc2ccccc2)n1`: -2.65%; for `COc1c(Cl)cc(Cl)cc1/C=C(\C#N)c1nn(-c2ccccc2)c(N)c1C#N`: 9.09%.
With `Cc1c(C(=O)NCCc2ccc(Cl)cc2)oc2ccc(S(=O)(=O)N3CCC(C)CC3)cc12`, the “% Inhibition @ 10 uM” value was determined as 12.1%.
For the molecule `COc1ccc(OC)c(CN2CCN(c3cccc(C)c3C)CC2)c1`, the “% Inhibition @ 10 uM” value is 3.16%.
Then `COc1ccccc1CNC1=NS(=O)(=O)C(c2ccc(C)cc2)=C1C`, with -3.08%; and `CCOC(=O)C(=O)CC(=O)c1ccc(CC)cc1`, with -7.02%.
Then `Nc1nonc1-c1nc2ccccc2n1Cc1cc2c(cc1Br)OCO2`, with -1.11%; and `COc1ccc(CCN2C(=O)CSC2c2ccc(Cl)cc2)cc1OC` (stereo not drawn), with -20%; and `CS(=O)(=O)n1nc(-c2ccco2)nc1SCc1ccccc1`, with -6.55%.
As to `CC(C)C[C@H](C(=O)O)N1Cc2ccccc2C1=O`, the “% Inhibition @ 10 uM” value is given as 0.708%.
For the molecule `CC1C(C#N)=C(N)SC(N)=C1C#N`, the “% Inhibition @ 10 uM” value worked out at 67.5%.
Then `O=C(NCCCN1CCN(Cc2ccccc2)CC1)C1CCN(S(=O)(=O)N2CCCC2)CC1`, with 3.79%; and `COc1cccc2c1Oc1ncccc1N(C(=O)CCC(=O)NCCN(C)C)C2`, with 12.1%; and `Fc1ccc(-c2cn3c4ccccc4n(CCN4CCCC4)c3n2)cc1`, with 3.74%.
With `COc1ccc(NC(=O)CNS(=O)(=O)c2ccc(Cl)cc2)cc1`, the “% Inhibition @ 10 uM” value was -5.49%.
On to `CCc1cccc(CC)c1NC(=O)c1ccc2c(c1)OCO2`, for which the “% Inhibition @ 10 uM” value is 1.88%.
The same measure for `O=C(Nc1ccccc1F)c1ccc(Cn2cc(Br)cn2)cc1`: -1.08%; for `CC1CN(C2CCc3ccccc3C2)CC(C)O1` (stereo not drawn): -5.44%; for `CCN1CCC(NC2C3CC4CC(C3)CC2C4)CC1` (stereo not drawn): -1.78%.
In the case of `Cc1ccc(S(=O)(=O)CNC(=S)c2ccccc2)cc1`, the “% Inhibition @ 10 uM” value turned out to be 2.22%.
Turning to `Fc1ccc(Br)cc1C1C=C(c2ccc(Br)s2)Nc2ncnn21` (stereo not drawn), the “% Inhibition @ 10 uM” value turned out to be 1.73%.
`CCC(=O)CC(c1ccc([N+](=O)[O-])cc1)c1c(O)oc2ccccc2c1=O` (stereo not drawn): the “% Inhibition @ 10 uM” value is recorded as -4.96%.
